We go through 25 compounds from PubChem BioAssay AID1963576 (National Center for Advancing Translational Sciences (NCATS), 2024).

In all, about 46,000 compounds went through this assay and about 60 (0.1%) were called active. Inconclusive results (about 3%) are left out. Calls follow the shape of the dose curve; as a rule, active = well fitted inhibition curve with a large enough effect; inconclusive = small, poorly fitted or top-dose-only effect; inactive = no such curve, though single readings can be large or run the other way. The list shows a part of the results.

This experiment is described as follows: Primary qHTS assay for Inhibitors of ovarian cancer metastasis using an organotypic tumor microenvironment (TME) model. Also: nearly all actives have a fitted effect of over 65% in size.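 As to activity change, negative = inhibition: plate controls were DMSO wells for no effect and tomatine positive control wells for full effect.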 The conditions noted are these: SKOV3ip1-GFP adhesion/invasion on 3D omental model, fluorescence; series mostly up to 45.8 µM; activity change, negative = inhibition: at the top concentration. Summed up:
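Primary human omental fibroblast/mesothelial 3D culture pre-formed 48 h. SKOV3ip1-GFP cells added with compounds (0.36-46 umol/L), incubated 2 h RT/16 h 37 C, fixed; GFP cells quantified at 488/509 nm.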
A general note: qHTS replaces the single test concentration by a dilution series.
Turning to `Cn1c(=O)n(-c2ccc3c(c2)OCO3)c2nc(-c3ccccc3)nc(C(N)=O)c21`, the outcome was inactive.

Turning to `COc1ccc(NC(=O)c2sc3nc[nH]c(=O)c3c2C)cc1Cl`, the compound was classed as inactive.

Turning to `CCOc1ccc(NC(=O)C2CC(=O)N(c3ccc(C(C)C)cc3)C2)cc1` (stereo not given), the “activity change, negative = inhibition” value was inactive: -0.717%.

As to `COc1ccc(C)cc1NC(=O)c1ccc2c(SCC(=O)O)c3c(nc2c1)CCCC3`, the outcome was inactive.

Take `C[C@@H](O[C@H]1OCCN(Cc2n[nH]c(=O)[nH]2)[C@@H]1c1ccc(F)cc1)c1cc(C(F)(F)F)cc(C(F)(F)F)c1`: the “activity change, negative = inhibition” value is inactive: -12%.

Regarding `COc1ccc(C(=O)N2CCN(Cc3cc(=O)n4nc(-c5ccccc5C)sc4n3)CC2)cc1OC`, the “activity change, negative = inhibition” value is inactive: -4.85%.

With `CC(=O)Nc1ccc(-c2cc(C(=O)O)c3c(-c4ccccc4)[nH]nc3n2)cc1`, the “activity change, negative = inhibition” value is inactive: 9.92%.

For the compound `COc1cc(CN(C(=O)COc2ccc(C)cc2)c2ccccn2)cc(OC)c1OC`, the “activity change, negative = inhibition” value is inactive: -0.472%.

As to `CCCCNC(=O)c1nn(-c2ccc(CC)cc2)nc1CO`, the “activity change, negative = inhibition” value was inactive: 15.8%.

Consider `Cc1cccc(NC(=O)C2CCN(S(=O)(=O)c3ccc(F)cc3)CC2)c1C`, for which the “activity change, negative = inhibition” value is inactive: -7.65%.

For `CCOC(=O)c1ccc(NS(=O)(=O)c2ccc3c(c2)n(C)c(=O)n3C)cc1`, the “activity change, negative = inhibition” value is inactive: 5.97%.

As for `COc1cccc(CN(C(=O)c2oc3cc(C)ccc3c2C)C2CCS(=O)(=O)C2)c1` (stereo not given), the compound was classed as inactive.

For the compound `CCc1ccccc1NC(=O)Cn1nnc(C(=O)NCc2ccccc2Cl)c1N`, the “activity change, negative = inhibition” value was inactive: -10.7%.

`CC1CCC(NC(=O)c2ccc3c(c2)N(Cc2cccc(Cl)c2)C(=O)c2ccccc2S3(=O)=O)CC1` (stereo not given): the “activity change, negative = inhibition” value was inactive: -7.44%.

For `CCCn1c(=O)sc2cc(NC(=O)COc3ccc(Cl)cc3)ccc21`, the “activity change, negative = inhibition” value was inactive: -8.3%.

For the compound `Cc1ccc2nc(-c3ccccc3F)c(Nc3ccc(Cl)cc3)n2c1`, the call was inactive.

For `COc1cccc(-n2c(=O)c3c4c(sc3n(Cc3ccc(C)cc3)c2=O)CCCC4)c1`, the “activity change, negative = inhibition” value is inactive: -0.148%.

As for `COc1ccc(-c2nc(CSCC(=O)N3CCN(c4cccc(C)c4C)CC3)c(C)o2)cc1OC`, the “activity change, negative = inhibition” value was inactive: -0.408%.

For `COc1ccc(CCNC(=O)c2ccc3c(c2)c(C)c(C)n3Cc2ccc(F)cc2)c(OC)c1OC`, the result was inactive.

With `CCN(CC)CCCNC(=O)CN1C(=O)CCn2nc(-c3cn(C)c4ccccc34)cc21`, the “activity change, negative = inhibition” value is inactive: -2.37%.

As for `COc1ccc(-c2nc3c4ccccc4n(CC(=O)N4CCN(c5ccccc5OC)CC4)c(=O)n3n2)cc1`, the call was inactive.

Take `COc1cccc(C(=O)Nc2ccccc2C(=O)OCc2cc(=O)n3nc(C4CC4)sc3n2)c1`: the “activity change, negative = inhibition” value was inactive: 8.8%.

Take `Cc1c(C(=O)N2CCCC2)oc2c1-c1nn(CC(=O)NCCCOC(C)C)cc1CC2`: the “activity change, negative = inhibition” value was inactive: -6.97%.

With `Cc1ccc(C(=O)c2cn(CC(=O)NC3CCCCC3)c3nc(C)ccc3c2=O)cc1`, the “activity change, negative = inhibition” value was inactive: -0.437%.

Take `O=S(=O)(NCc1ccc(F)cc1)c1ccc(-c2cnc(C3CC3)o2)cc1`: the call was inactive.
